Among all 39,000 compounds or so, about 220 (0.56%) showed activity. Some of the results follow.
What follows are compounds tested on Escherichia coli K-12 BW25113 (assay: relative growth (OD600 normalised to plate interquartile mean) (fraction); higher = less growth inhibition, active = 0.2 or less). Conditions: 50 µM; LB; incubation time: overnight (16-24 h).
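Further: static incubation at 37 °C against the wild-type strain, values averaged over two biological replicates.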

Structure (SMILES)	relative growth
O=C(C[C@H]1C[C@H]2c3cc(NC(=O)Cc4ccncc4)ccc3O[C@H]2[C@H](CO)O1)NCc1cc(F)ccc1F	inactive: 1.01
Cc1noc(C)c1NC(=O)Nc1ccc2c(c1)C(=O)N([C@@H](C)CO)C[C@@H](C)[C@@H](CN(C)Cc1ccc(Cl)c(Cl)c1)O2	inactive: 0.959
C[C@H](CO)N1C[C@H](C)[C@@H](CN(C)Cc2ccc(C(=O)Nc3ccccc3N)cc2)OCc2cnnn2CCCC1=O	inactive: 1.01
CC(=O)N1CCC[C@@H]1C(=O)O	inactive: 0.971
Cc1noc(C)c1NC(=O)Nc1ccc2c(c1)C(=O)N([C@H](C)CO)C[C@H](C)[C@@H](CN(C)Cc1ccc(Cl)c(Cl)c1)OCCCC[C@@H](C)O2	inactive: 1.02
CCc1nc2ccc(C(=O)Nc3cccc(OC)c3)cn2c1N(CC)Cc1cccc(Br)c1	inactive: 1.01
C[C@@H]1CN([C@H](C)CO)C(=O)c2cccc(NC(=O)NC3CCCCC3)c2O[C@@H]1CN(C)Cc1ccc(C(=O)Nc2ccccc2N)cc1	inactive: 1.03
C[C@H]1CN([C@@H](C)CO)C(=O)c2cc(NC(=O)Nc3ccc(C(F)(F)F)cc3)ccc2O[C@@H]1CN(C)Cc1ccc(Cl)c(Cl)c1	inactive: 0.991
C[C@@H]1CCCCO[C@@H](CN(C)C(=O)Nc2ccc(F)cc2)[C@H](C)CN([C@@H](C)CO)C(=O)c2cc(NC(=O)CCCN(C)C)ccc2O1	inactive: 0.968
C[C@@H]1CN([C@@H](C)CO)C(=O)Cc2cc(NS(=O)(=O)c3cccs3)ccc2O[C@@H]1CN(C)S(=O)(=O)c1cccs1	inactive: 0.982
Cc1ccc(S[C@]2(C(=O)NCCN3CCOCC3)CC(=O)N(C(C)C)[C@@H]2c2ccc(CO)cc2)cc1	inactive: 1
Cc1noc(C)c1S(=O)(=O)Nc1ccc2c(c1)CC(=O)N([C@@H](C)CO)C[C@H](C)[C@@H](CN(C)C(=O)NC1CCCCC1)O2	inactive: 0.942
CCn1cnc(C(=O)NC)c1C(=O)NC	inactive: 1.01
C[C@H]1CCCCO[C@@H](CN(C)C(=O)Nc2ccc3c(c2)OCO3)[C@@H](C)CN([C@@H](C)CO)C(=O)c2cc(NS(=O)(=O)c3ccc(F)cc3)ccc2O1	inactive: 1.05
CCCN(C)C[C@H]1OCCCC[C@H](C)Oc2ccc(NS(=O)(=O)c3cn(C)cn3)cc2C(=O)N([C@H](C)CO)C[C@H]1C	inactive: 0.989
C[C@@H]1CCCCO[C@@H](CN(C)S(=O)(=O)c2cccs2)[C@H](C)CN([C@@H](C)CO)C(=O)c2cc(NC(=O)C3CCCCC3)ccc2O1	inactive: 0.968
CC1=NCCN1	inactive: 0.997
COc1ccc(S(=O)(=O)Nc2ccc3c(c2)C(=O)N([C@H](C)CO)C[C@H](C)[C@@H](CN(C)Cc2ccc(Cl)c(Cl)c2)OCCCC[C@H](C)O3)cc1	inactive: 0.968
CC(C)(C)OC(=O)C[C@@H]1CC=CC[C@H](CC(=O)NCCO)C(=O)NCCOC1=O	inactive: 0.982
CO[C@H]1CN(C)C(=O)c2ccc(NS(C)(=O)=O)cc2OC[C@@H](C)N(C(=O)C2CCCCC2)C[C@H]1C	inactive: 0.981

Structure (SMILES)	relative growth
C[C@H](CO)N1C[C@H](C)[C@H](CN(C)Cc2ccncc2)Oc2ccc(NS(=O)(=O)c3cccs3)cc2CC1=O	inactive: 0.97
C[C@@H]1O[C@@H](OC[C@H]2O[C@@H](Oc3cc(O)c4c(c3)O[C@@H](c3ccc(O)cc3)CC4=O)[C@H](O)[C@@H](O)[C@@H]2O)[C@H](O)[C@H](O)[C@H]1O	inactive: 1
Cn1cnc(S(=O)(=O)N[C@H]2C=C[C@@H](CC(=O)NCC3CC3)O[C@H]2CO)c1	inactive: 0.988
Cc1ccc(S(=O)(=O)Nc2cccc3c2O[C@H](CN(C)Cc2ccc(Cl)c(Cl)c2)[C@@H](C)CN([C@H](C)CO)C3=O)cc1	inactive: 1.05
Cc1noc(C)c1S(=O)(=O)N(C)C[C@H]1Oc2ccc(NC(=O)CCC(F)(F)F)cc2CC(=O)N([C@H](C)CO)C[C@@H]1C	inactive: 0.996
Cc1ccc(S(=O)(=O)Nc2cccc3c2O[C@H](CN(C)C(=O)Nc2ccc(C(F)(F)F)cc2)[C@H](C)CN([C@H](C)CO)C3=O)cc1	inactive: 1
C[C@@H]1CN([C@H](C)CO)C(=O)c2cccc(NS(=O)(=O)c3cn(C)cn3)c2O[C@@H]1CN(C)S(=O)(=O)c1ccc(F)cc1	inactive: 1
C[C@H]1CN([C@@H](C)CO)C(=O)c2cc(NC(=O)CCN3CCOCC3)ccc2O[C@H]1CN(C)S(=O)(=O)c1cn(C)cn1	inactive: 1.04
CO[C@H](CN(C)S(=O)(=O)c1cccc(Cl)c1)[C@H](C)CN([C@H](C)CO)S(=O)(=O)c1ccc(Cl)cc1	inactive: 1.04
C[C@@H]1CCCCO[C@H](CN(C)S(=O)(=O)c2cn(C)cn2)[C@@H](C)CN([C@H](C)CO)C(=O)c2cc(NC(=O)Nc3ccc(C(F)(F)F)cc3)ccc2O1	inactive: 1.02
C[C@H]1CCCCO[C@H](CN(C)Cc2ccncc2)[C@@H](C)CN([C@@H](C)CO)C(=O)c2cc(NC(=O)CCC(F)(F)F)ccc2O1	inactive: 0.985
Cc1ccc(S(=O)(=O)Nc2cccc3c2O[C@@H](CN(C)S(=O)(=O)c2cn(C)cn2)[C@@H](C)CN([C@H](C)CO)C3=O)cc1	inactive: 0.987
CCS(=O)(=O)N1C[C@]2(C1)CN([C@H](CO)c1[nH]c3cc(ccc3c12)OC)C(=O)Nc1c(noc1C)C	inactive: 0.988
O=c1[nH]c(=O)c2[nH]c(=O)[nH]c2[nH]1	inactive: 0.999
C[C@@H]1CCCCO[C@@H](CN(C)Cc2ccc(C(=O)Nc3ccccc3N)cc2)[C@@H](C)CN([C@H](C)CO)C(=O)c2cc(NC(=O)NC3CCCCC3)ccc2O1	inactive: 1
C[C@@H]1CN([C@@H](C)CO)C(=O)c2cccc(NS(=O)(=O)c3cn(C)cn3)c2O[C@@H]1CN(C)CC1CC1	inactive: 1.02
O=C(C[C@@H]1C[C@H]2c3cc(NS(=O)(=O)c4ccc(F)cc4)ccc3O[C@H]2[C@@H](CO)O1)NCc1ccccn1	inactive: 1.02
COc1ccc(S(=O)(=O)N(C)C[C@H]2Oc3ccc(NC(=O)NC(C)C)cc3CC(=O)N([C@H](C)CO)C[C@@H]2C)cc1	inactive: 1.01
CS(=O)(=O)N(CC(=O)O)Cc1ccccc1	inactive: 0.926
C=CC(=O)N1CC[C@@H](Oc2nc(Nc3ccc(N4CCC(N5CCN(C)CC5)CC4)cc3)c(C(N)=O)nc2CC)C1	inactive: 1.03

Structure (SMILES)	relative growth
COc1ccc(NC(=O)Nc2cccc3c2O[C@@H](CN(C)C(=O)Nc2cccc4ccccc24)[C@@H](C)CN([C@H](C)CO)C3=O)cc1	inactive: 1.03
CCCC#Cc1ccc2c(c1)O[C@@H](CN(C)S(=O)(=O)c1cccc(OC)c1)[C@@H](C)CN([C@H](C)CO)S2(=O)=O	inactive: 1.02
COc1ccccc1CN1C(=O)c2ccccc2[C@@]2(Cc3ccccc3N(CC(F)(F)F)C2=O)[C@@H]1c1ccc(CO)cc1	inactive: 1.03
C[C@@H]1CN([C@H](C)CO)C(=O)c2cc(NS(=O)(=O)c3cn(C)cn3)ccc2O[C@@H](C)CCCCO[C@@H]1CN(C)Cc1ccc(C(F)(F)F)cc1	inactive: 0.905
Cc1noc(C)c1S(=O)(=O)Nc1ccc2c(c1)C(=O)N([C@H](C)CO)C[C@H](C)[C@@H](CN(C)Cc1ccc(C(F)(F)F)cc1)OCCCC[C@@H](C)O2	inactive: 1.02
C[C@H](NC(=O)N(C)C[C@@H]1OCc2ccccc2-c2c(n(C)c3ccccc23)C(=O)N([C@@H](C)CO)C[C@H]1C)c1ccccc1	inactive: 0.986
COc1ccc(S(=O)(=O)N(C)C[C@@H]2Oc3ccc(NS(=O)(=O)c4ccc(C)cc4)cc3C(=O)N([C@H](C)CO)C[C@@H]2C)cc1	inactive: 1.01
C[C@@H]1CCCCO[C@@H](CN(C)C(=O)c2ccncc2)[C@@H](C)CN([C@H](C)CO)C(=O)c2cc(NS(=O)(=O)c3ccc(Cl)cc3)ccc2O1	inactive: 1.03
COc1ccc(NC(=O)N(C)C[C@@H]2Oc3ccc(NC(=O)Nc4cccc5ccccc45)cc3C(=O)N([C@@H](C)CO)C[C@H]2C)cc1	inactive: 1
C[C@@H]1CN([C@H](C)CO)C(=O)c2cc(-c3cccnc3)cnc2O[C@@H]1CN(C)Cc1ccc(-c2ccccc2)cc1	inactive: 1.01
NC[C@H](c1cccs1)N1CCCCCC1	inactive: 1.04
C[C@H](CO)N1C[C@H](C)[C@H](CN(C)S(=O)(=O)c2ccc(F)cc2)OCCCC[C@H](C)Oc2ccc(NC(=O)C3CCCCC3)cc2C1=O	inactive: 1.02
Cc1noc(C)c1NC(=O)N(C)C[C@@H]1OCCCC[C@H](C)Oc2ccc(NC(=O)NC3CCCCC3)cc2C(=O)N([C@H](C)CO)C[C@@H]1C	inactive: 1
C[C@@H]1CN([C@@H](C)CO)C(=O)c2cc(NC(=O)NC3CCCCC3)ccc2O[C@@H](C)CCCCO[C@H]1CN(C)Cc1ccncc1	inactive: 1.02
CCN1CCN(C(=O)NC(C(=O)NC2C(=O)N3C(C(=O)O)=C(CSc4nnnn4C)CSC23)c2ccc(O)cc2)C(=O)C1=O (centres undefined)	active: 0.046
C[C@@H]1CN([C@H](C)CO)C(=O)c2c(c3ccccc3n2C)-c2ccccc2CO[C@@H]1CN(C)C(=O)c1cc(Cl)cc(Cl)c1	inactive: 1.04
c1ccc(CCN2CCNCC2)nc1	inactive: 0.997
O=C(C[C@@H]1CC[C@H]2[C@@H](COC[C@@H](O)CN2S(=O)(=O)c2ccccc2)O1)N[C@H]1CCN(Cc2ccccc2)C1	inactive: 0.997
CC(=O)c1ccc(F)c(Cl)c1	inactive: 0.998

Source: the supplement of paper PMC9446081
